# Among all 45,000 compounds or so, about 65 (0.1%) were called active. Calls come from the whole dose curve; as a rule, active = well fitted activation curve with a large enough effect; inconclusive = small, poorly fitted or top-dose-only effect; inactive = no such curve, though single readings can be large or run the other way. The list shows a part of the results.
# Biological target: Galactocerebrosidase (Homo sapiens) (UniProt P54803)
# Test: A Novel Cell-Based Assay to Identify Small Molecules for B -Galactocerebrosidase; note: 0% is about no effect; nearly all actives have a fitted effect of over 65% in size
# Conditions: 145M-Twi-hGALC-G270D cells, HMU-beta-Gal fluorescence, 48 h; series mostly up to 57.5 µM; activation: at the top concentration
# How it was run: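 qHTS, 1536-well; 145M-Twi-hGALC-G270D cells (WT line also made) in DMEM/F12 + 10% FBS; compound incubation on live cells; HMU-β-gal 0.1 mM final, pH 5.2, NaTC; carbonate stop; fluorescence increase = enhanced residual activity.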
# UniProt P54803, sequence (P54803 whole entry, looked up): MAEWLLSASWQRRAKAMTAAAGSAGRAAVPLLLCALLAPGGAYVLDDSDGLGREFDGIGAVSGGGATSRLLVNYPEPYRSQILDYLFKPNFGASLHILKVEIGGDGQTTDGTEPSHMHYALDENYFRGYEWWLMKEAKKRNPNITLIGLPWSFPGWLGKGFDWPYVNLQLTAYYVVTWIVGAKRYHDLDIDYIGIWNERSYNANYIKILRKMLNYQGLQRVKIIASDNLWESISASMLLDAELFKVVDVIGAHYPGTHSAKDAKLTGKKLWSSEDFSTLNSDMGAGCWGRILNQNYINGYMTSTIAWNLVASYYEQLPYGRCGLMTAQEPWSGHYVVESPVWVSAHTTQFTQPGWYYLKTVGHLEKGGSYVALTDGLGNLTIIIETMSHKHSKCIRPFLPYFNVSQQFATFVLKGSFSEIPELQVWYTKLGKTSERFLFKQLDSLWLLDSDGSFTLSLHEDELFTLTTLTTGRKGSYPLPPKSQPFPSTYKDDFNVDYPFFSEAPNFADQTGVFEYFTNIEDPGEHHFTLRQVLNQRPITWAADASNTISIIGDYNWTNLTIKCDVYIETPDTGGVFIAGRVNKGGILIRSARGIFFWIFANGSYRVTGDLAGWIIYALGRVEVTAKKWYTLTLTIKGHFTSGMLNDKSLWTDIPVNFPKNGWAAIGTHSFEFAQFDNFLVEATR
row,SMILES,activation
1,Cc1c(Cl)ccc2sc(N3CCN(C(=O)c4ccco4)CC3)nc12,inactive: -18.1%
2,COc1ccccc1CNc1ccc(-c2nc(C(C)C)no2)cc1[N+](=O)[O-],inactive: -38.5%
3,CN(C(=O)C(Cl)Cl)c1ccc(OC(=O)c2ccco2)cc1,inactive: -12.7%
4,O=C(Nc1ccc(F)cc1)[C@H](Cc1ccccc1)N1Cc2ccccc2C1=O,inactive: 4.24%
5,Cn1nnnc1SCCCNCc1cccc(OCc2ccc(Cl)cc2)c1,inactive: -12.8%
6,CC(C)CCOc1ccc(C(=O)Nc2sc3c(c2C#N)CCCCC3)cc1,inactive: -7.84%
7,Cc1ccccc1OCc1ccc(-c2nc(C#N)c(NCCCN(C)C)o2)o1,inactive: -27.3%
8,Cc1ccc(C(=O)Nc2ccc(Cl)c(-c3nc4ncccc4o3)c2)c(C)c1,inactive: -13.9%
9,Cc1ccccc1-c1nc(CNC(=O)Nc2ccccc2)c(C)o1,inactive: -11.5%
10,COc1cccc(-c2nc(-c3ccc(-c4ccccc4)nc3OC)no2)c1,inactive: -14.7%
11,CCOC(=O)C1CCN(C(c2ccccc2OC)c2c(O)cc(C)n(CCOC)c2=O)CC1 (stereo not drawn),inactive: -5.27%
12,COC(=O)c1ccc(Nc2ncnc3c2nc2n3CCCC2)cc1,inactive: -35.3%
13,CCOc1ccc(C(=O)NCCn2cc(SCC(=O)NCCc3ccc(OC)c(OC)c3)c3ccccc32)cc1,inactive: -7.73%
14,CCOc1ccccc1NC(=O)C1CCN(S(=O)(=O)c2c(C)noc2/C=C/c2ccc(C)cc2)CC1,inactive: -8.87%
15,O=C(Nc1ccccc1)c1cccc2c(=O)c3c([nH]c12)CCCC3,inactive: -11.8%
16,CCOC(=O)N1CCN(C(=O)CN(c2cccc(Cl)c2C)S(=O)(=O)c2ccc(C)cc2)CC1,inactive: -27.5%
17,Cc1cccc(-n2c(SCC(N)=O)nc3c(oc4ccccc43)c2=O)c1,inactive: -7.55%
18,COc1ccccc1-c1nc(-c2ccc(Br)o2)no1,inactive: -35.9%
19,O=C(c1cc2c(=O)oc3ccccc3c2s1)N1CCN(c2cccc(Cl)c2)CC1,inactive: 0.983%
20,COc1ccc(Cl)cc1NC(=O)Cn1ccn(Cc2ccc(C)cc2)c(=O)c1=O,inactive: 9.18%
21,COc1ccccc1OCCn1cc(C(=O)c2cccs2)c2ccccc21,inactive: -34.2%

row,SMILES,activation
1,COc1cc(/C=C/C(N)=O)cc(OC)c1OC,inactive: -12.1%
2,Cc1ccc(-n2nc3c(N4CCC(C(=O)NC(C)C)CC4)nnc(C)c3c2C)cc1,inactive: -3.89%
3,Nc1ccn([C@H]2CC[C@@H](CO)O2)c(=O)n1,inactive: -10.7%
4,Cc1cc(C)cc(NC(=O)c2cc(S(=O)(=O)N3CCCCCC3)cn2C)c1,inactive: -10.5%
5,COCCn1c(SCC(=O)c2cc(C)ccc2C)nc2cc(C(=O)NC3CCCC3)ccc2c1=O,inactive: -3.06%
6,CCN(CC)CCN(C(=O)c1ccco1)c1nc2ccc(Cl)cc2s1,inactive: -19.8%
7,Cc1nn(CC(=O)NC2CC2)c(=O)c2cc3ccccc3n12,inactive: -8.13%
8,Cn1c(SCc2ccc(F)cc2)nc2ccc(C(=O)NCc3ccc(F)cc3)cc21,inactive: -10.9%
9,CCC1CN(C(=O)N2CCC(C(=O)NCc3ccc(OC)cc3OC)CC2)c2cc(C)ccc2O1 (stereo not drawn),inactive: -18.4%
10,Cc1ccc(NC(=O)Cn2c(-c3ccc4c(c3)OCO4)cn(-c3ccccc3)c2=O)cc1C,inactive: -14.7%
11,CCc1ccc(NC(=O)c2ccc3c(c2)nnn3CC)cc1,inactive: -3.31%
12,COc1ccc(-c2nn(C)c3sc(C(=O)Nc4cccc(F)c4)cc23)cc1OC,inactive: -4.8%
13,Cc1c(Cl)cccc1-n1ncc(C(=O)Nc2ccc3c(c2)OCCO3)c1C1CCN(C(=O)OC(C)(C)C)CC1,inactive: 3.63%
14,CCOc1ccc(-c2nc(SC(C(C)=O)C(=O)N(C)C)c3c(=O)n(C)c(=O)n(C)c3n2)cc1 (stereo not drawn),inactive: -8.12%
15,CCN(CC)S(=O)(=O)c1ccc2c(c1)N(CC(=O)N1CCN(c3cccc(C(F)(F)F)c3)CC1)C(=O)CO2,inactive: -11.8%
16,Cc1ccccc1OCC(=O)OCc1cc(=O)n2ccsc2n1,inactive: -6.89%
17,Cc1ccc2cc3cc(C(=O)Nc4ccc(F)cc4Cl)oc3nc2c1,inactive: 3.34%
18,Cc1ccccc1CNC(=O)C1CCN(c2nnc(C)c3c(C)n(-c4ccccc4)nc23)CC1,inactive: -13.7%
19,CCc1ccc(-c2nc3ccc(Br)cc3c(C(=O)O)c2C)s1,inactive: -10.4%
20,O=C(Cn1c(=O)n(Cc2ccc3c(c2)OCO3)c(=O)c2oc3ccccc3c21)Nc1ccccc1,inactive: -2.5%
21,CSc1ccc(CCNC(=O)C2CCN(c3nc4ccccc4nc3C(F)(F)F)CC2)cc1,inactive: -5.87%

row,SMILES,activation
1,COc1cc(-c2noc(-c3cc4cc(F)ccc4oc3=O)n2)cc(OC)c1OC,inactive: -6.87%
2,CCc1nnc(NC(=O)c2cc(=O)c3cc(C)c(C)cc3o2)s1,inactive: -30.3%
3,CN1C(=O)C2(c3ccccc31)N(c1ccccc1)C(=O)CS2(=O)=O (stereo not drawn),inactive: -23.5%
4,CCn1c(C(=O)NCc2cccc(Br)c2)cc2oc3ccccc3c21,inactive: -7.57%
5,COC(=O)c1ccc(NC(=O)c2c(NCc3ccc(C)o3)sc3c2CCCC3)cc1,inactive: -15%
6,C[C@@H]1CCN(C(=O)[C@H](CCCN=C(N)N)NS(=O)(=O)c2cccc3c2NC[C@H](C)C3)[C@@H](C(=O)O)C1,inactive: -14.8%
7,Cc1cc(C)c2oc(C(=O)Nc3sc4c(c3C(=O)NCc3ccco3)CCC4)cc(=O)c2c1,inactive: -13.2%
8,CN1CCN(C(=O)C(=O)Nc2c3c(nn2-c2ccc(F)cc2)CSC3)CC1,inactive: -8.18%
9,Cc1ccc(C)c(CN2C(=O)c3ccccc3S(=O)(=O)c3ccc(C(=O)Nc4ccccc4C(F)(F)F)cc32)c1,inactive: -9.42%
10,Cc1ccc(NC(=O)/C=C/c2ccccc2)c(Br)c1,inactive: -4.92%
11,COc1ccc(-c2nc3scc(CCNS(=O)(=O)c4c(C)noc4C)n3n2)cc1,inactive: -5.76%
12,COc1ccc(N2CCN(C(=O)Cn3cnc4nc5c(cc4c3=O)CCCC5)CC2)cc1,inactive: -7.85%
13,Cc1ccc(S(=O)(=O)NCCc2nnc3ccc(SCc4ccccc4C)nn23)cc1,inactive: -4.45%
14,COc1ccc(OC)c(NC(=O)CSc2c3c(nc4ccccc24)CCCC3)c1,inactive: -12.7%
15,CCOC(=O)c1cccc(NC(=O)c2cc(CN3CCCC3)on2)c1,inactive: -13.3%
16,COc1ccc(/C=C\c2onc(C)c2S(=O)(=O)N2CCC(C(=O)Nc3ccccc3OC)CC2)cc1,inactive: -14.9%
17,CCc1nn(CCCC(=O)NCc2ccccc2Br)c(=O)c2cc3occc3n12,inactive: -9.23%
18,Cc1ccc(OC(=O)c2cc(-c3ccc4c(c3)OCCO4)on2)c(C)c1,inactive: -4.08%
19,COc1ccccc1OC(C)C(=O)NCC1(N2CCOCC2)CCCCC1 (stereo not drawn),inactive: 14.3%
20,Cc1ccc(Cn2cccc2C2=NC(C)(C)CO2)cc1,inactive: -13.7%
21,CC1CCN(S(=O)(=O)c2ccc3c(c2)N(CC(=O)NC(C)C)C(=O)CS3)CC1,inactive: -6.61%

# Reference: PubChem BioAssay AID1159614 (National Center for Advancing Translational Sciences (NCATS), 2016)
